# Experimental data as given in the supplement of paper PMC4166925.
# ± gives the standard deviation of the averaged measurements. In all, about 33,000 sequences were measured (“E-score (dimensionless, -0.5 to 0.5)”: median about -0.046, highest 2% from about 0.36 on). Some of the results follow.
# Tested on: T1, SpTbr T-box DNA-binding domain (GST fusion)
# T1 sequence: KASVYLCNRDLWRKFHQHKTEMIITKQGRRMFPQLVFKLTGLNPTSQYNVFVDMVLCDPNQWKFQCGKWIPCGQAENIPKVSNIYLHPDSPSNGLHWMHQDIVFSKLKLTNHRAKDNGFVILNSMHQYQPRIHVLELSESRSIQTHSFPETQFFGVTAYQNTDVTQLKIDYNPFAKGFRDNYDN
# Experiment: PBM E-score of 8-mer (E-score (dimensionless, -0.5 to 0.5)); Tbr is Tbrain of the sea star Patiria miniata (Pm) or the sea urchin Strongylocentrotus purpuratus (Sp); higher = stronger binding preference; most listed sequences are background and not binding sites
# Details: the construct has about 5 more residues each side
# Outline: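 Each ungapped 8-mer received an enrichment E-score from the Universal PBM Analysis Suite, averaged over duplicate arrays. The proteins were Tbr T-box DNA-binding domains, covering the whole T-box plus about five flanking residues, fused to GST and expressed in BL21 E. coli at 20 °C before glutathione affinity purification. Universal Agilent oligonucleotide arrays were made double-stranded by primer extension and incubated with 200 nM protein in PBS (pH 7.5). The arrays were then scanned and quantified, and every 8-mer was scored from probe intensities.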
row,Sequence,PBM E-score of 8-mer
1,CCGGATGA,-0.298 ± 0.022
2,AAGCGTGA,0.415 ± 0.01
3,AGCAAGCC,-0.198 ± 0.008
4,ACATGCAG,-0.0712 ± 0.067
5,CTACCGAG,-0.07 ± 0.013
6,CTTTAATA,-0.218 ± 0.087
7,AGACAAAC,-0.0536 ± 0.013
8,CGTCGAAC,-0.15 ± 0.011
9,CTAGTGGC,0.119 ± 0.068
10,AACAGGTA,0.0912 ± 0.072
11,AATAGGCC,-0.249 ± 0.1
12,CGATCTCC,-0.0233 ± 0.053
13,TTTAGAAA,-0.0645 ± 0.028
14,CGGTTTAC,0.0711 ± 0.01
15,AGTCCTGA,-0.198 ± 0.011
16,GCTCTATA,-0.203 ± 0.014
17,AATGGACT,-0.104 ± 0.02
18,CTGACTGA,-0.195 ± 0.0035
19,AAAGTGGG,0.0835 ± 0.049
20,AATTATAT,-0.21 ± 0.1
21,CGCGCGAG,0.304 ± 0.036
22,AGAACAAA,-0.086 ± 0.039
23,CAGCTAGC,0.117 ± 0.0012
24,CACGAGAG,-0.0242 ± 0.12
25,AATGGGAT,-0.2243 ± 0.00058

row,Sequence,PBM E-score of 8-mer
1,GACCTGAA,0.0345 ± 0.0032
2,CTAATCTC,-0.0143 ± 0.027
3,TCAGCTAA,-0.0174 ± 0.025
4,CGCATGTC,0.0857 ± 0.014
5,GATACATA,-0.124 ± 0.0059
6,CGGAACCG,-0.2455 ± 0.0023
7,CGTAACCA,-0.108 ± 0.069
8,CCTTCCCC,-0.198 ± 0.14
9,ACACCAGA,0.254 ± 0.049
10,AAACGTTA,-0.0697 ± 0.051
11,CCAAGGGC,-0.0901 ± 0.039
12,AAAATCCG,0.0727 ± 0.055
13,ATACTATA,0.0149 ± 0.0097
14,AAAATCGA,-0.0432 ± 0.048
15,GCGTCTGA,-0.00579 ± 0.0016
16,CTGAGGCA,0.0573 ± 0.083
17,CGATGCGC,0.052 ± 0.031
18,CGTAAAAG,-0.0359 ± 0.073
19,AACGATAT,0.0227 ± 0.017
20,CAACTCAA,-0.0247 ± 0.11
21,TAGTCAAA,-0.232 ± 0.04
22,CATTGAGC,-0.016 ± 0.022
23,CGATCTTA,-0.0349 ± 0.0034
24,CGAAGAGC,-0.069 ± 0.0032
25,ACGGTCCT,-0.0863 ± 0.015

row,Sequence,PBM E-score of 8-mer
1,TTACGGAA,-0.136 ± 0.043
2,CTTAAGAC,-0.231 ± 0.0058
3,CCGCGTAA,-0.02 ± 0.05
4,ATGCGCTA,0.0416 ± 0.027
5,ATGATGGG,-0.119 ± 0.093
6,AGTGCCGG,0.228 ± 0.022
7,AACCGTGT,0.169 ± 0.029
8,ACGAGACG,-0.0243 ± 0.072
9,GTTTGCCA,0.0393 ± 0.092
10,AAACCCAT,-0.0208 ± 0.039
11,CACTAAGC,0.114 ± 0.058
12,AGCTTGAT,-0.107 ± 0.074
13,ATAGCAAG,0.09255 ± 0.00052
14,GCGTCAAC,0.3857 ± 0.0035
15,GTTAGTCA,0.036 ± 0.012
16,CACGCAAG,0.173 ± 0.036
17,ACTGCACC,-0.1368 ± 0.00017
18,CGGGGACA,-0.029 ± 0.038
19,CGAGGAGA,-0.137 ± 0.018
20,ACAGCGCG,0.253 ± 0.02
21,ATCTGTGC,-0.241 ± 0.069
22,AAGGCAAG,-0.00871 ± 0.069
23,AGGAAGTC,-0.143 ± 0.016
24,AAGTCAGT,-0.309 ± 0.0071
25,AGTAATGA,-0.0258 ± 0.039

row,Sequence,PBM E-score of 8-mer
1,CGCGCCTC,0.365 ± 0.039
2,GCCCGACC,-0.213 ± 0.054
3,AGTAGATA,-0.284 ± 0.013
4,AGTTGCCC,-0.0911 ± 0.072
5,AGCCCACC,-0.287 ± 0.027
6,GGGAAAAA,-0.0358 ± 0.093
7,ACATTGAT,0.0854 ± 0.025
8,CAGAGGTC,-0.0425 ± 0.0058
9,GAGGGCGA,0.0238 ± 0.078
10,CTGATTCC,-0.253 ± 0.0094
11,AAGCACGA,-0.0497 ± 0.059
12,CACGCCAC,0.228 ± 0.028
13,CGTCACGC,0.288 ± 0.028
14,AAAACAAA,-0.198 ± 0.0028
15,GCATTTAC,0.0233 ± 0.0032
16,AATAGTTG,0.0033 ± 0.019
17,CCCGATCC,-0.16 ± 0.014
18,ACACCAAA,0.315 ± 0.013
19,GCTGGAAC,-0.0219 ± 0.00053
20,GCACGTGC,0.312 ± 0.081
21,CGGATTCC,-0.115 ± 0.051
22,AGGTAACC,-0.0796 ± 0.049
23,GCCGACAA,0.161 ± 0.014
24,ATCTTTGA,-0.0984 ± 0.035
25,CTTCAGCA,0.0811 ± 0.022

row,Sequence,PBM E-score of 8-mer
1,AAGACTAG,-0.182 ± 0.17
2,GTCTTGAA,-0.0886 ± 0.1
3,AAGCCCGT,-0.195 ± 0.062
4,TAAAAACA,-0.0415 ± 0.032
5,GCACAGCC,-0.169 ± 0.0024
6,ACCCGATG,0.0574 ± 0.046
7,CCAAACGC,-0.041 ± 0.043
8,TGGGTAAA,-0.199 ± 0.038
9,AATGGGAG,-0.225 ± 0.045
10,ACGTTGTG,0.193 ± 0.03
11,CGGCGACA,0.296 ± 0.018
12,GAGAAATC,-0.106 ± 0.025
13,ACGTCTCC,-0.0957 ± 0.001
14,GACTCCGA,-0.234 ± 0.015
15,AATAAACA,0.129 ± 0.078
16,AGGTGGGA,0.433 ± 0.0055
17,GGCATATA,-0.249 ± 0.046
18,ACCGCTGA,-0.128 ± 0.016
19,CTAGGGTA,-0.263 ± 0.04
20,ACCTCGAC,0.142 ± 0.016
21,GTTCCAAA,-0.131 ± 0.076
22,AATAGCAG,0.00093 ± 0.029
23,AATCGGTG,-0.0579 ± 0.036
24,ATTCTATC,-0.189 ± 0.067
25,AGGACACC,0.323 ± 0.014

row,Sequence,PBM E-score of 8-mer
1,GATCATGC,-0.082 ± 0.021
2,CATTTCTC,0.2 ± 0.013
3,TGAGAAAA,0.22 ± 0.073
4,GCACTGCC,0.108 ± 0.058
5,AACCCCCA,-0.119 ± 0.032
6,AAACCGAT,-0.099 ± 0.01
7,CAGCGGCC,-0.0972 ± 0.037
8,ATGTGGTG,0.23 ± 0.052
9,CGTTATAG,-0.139 ± 0.021
10,GCGGCTCA,-0.0334 ± 0.022
11,ACAACAGA,-0.0586 ± 0.028
12,CGTACTTC,-0.182 ± 0.02
13,ATAGGCAG,-0.2 ± 0.035
14,ACATATCG,-0.0304 ± 0.055
15,TACCCGAA,-0.184 ± 0.022
16,CGCACCTA,0.43 ± 0.0064
17,GAGGTTCA,-0.0617 ± 0.056
18,ATCACCCC,0.232 ± 0.013
19,AACTTATC,-0.00715 ± 0.012
20,GCGCGTCC,0.0329 ± 0.089
21,AGCCCAGA,-0.0897 ± 0.026
22,CCTAGCCG,-0.117 ± 0.024
23,CTAAAAAC,-0.0726 ± 0.048
24,AAACTATG,-0.131 ± 0.049
25,ACGTTAAA,-0.142 ± 0.022

row,Sequence,PBM E-score of 8-mer
1,CCCTGCGC,0.121 ± 0.06
2,TCGTGTCA,0.294 ± 0.0086
3,ACTGATTA,-0.115 ± 0.02
4,CGTTAAAG,0.156 ± 0.0087
5,CGTGCTTC,-0.16 ± 0.011
6,CCACGTAG,0.111 ± 0.0044
7,AAGGGGCG,0.159 ± 0.01
8,AAGACCAA,-0.233 ± 0.068
9,GCGCTTCA,0.0495 ± 0.077
10,GAGACTGC,-0.172 ± 0.0027
11,CGAAGCTA,-0.0815 ± 0.044
12,GCAACAAA,0.15 ± 0.024
13,CCGACAGA,0.0962 ± 0.028
14,CGCCTCTA,0.0534 ± 0.033
15,CCCCACAA,0.179 ± 0.0035
16,ACATTACG,-0.000135 ± 0.015
17,ATGCTTGC,-0.0178 ± 0.079
18,CTGTACAG,0.039 ± 0.044
19,AGGATCCT,-0.00585 ± 0.095
20,CTTTGGGA,-0.144 ± 0.032
21,CGGCGCCC,0.0161 ± 0.043
22,GAGCTCAA,-0.193 ± 0.0096
